From PubChem BioAssay AID540317 (National Center for Advancing Translational Sciences (NCATS), 2011)
The whole screen tested about 390,000 compounds, of which about 2,200 (0.56%) were called active. The inconclusive results got no clear call from the source; some entries with a clear call stand among them for comparison. Calls come from the whole dose curve; as a rule, active = well fitted inhibition curve with a large enough effect; inconclusive = small, poorly fitted or top-dose-only effect; inactive = no such curve, though single readings can be large or run the other way. Potencies of inconclusive entries are doubtful fits and often do not repeat.
Note: nearly all actives have a fitted effect of over 70% in size.
Potency is the fitted concentration of half-maximal effect; tags give direction and shape of the fitted curve.

Each compound was assayed against Chromobox protein homolog 1 (Homo sapiens) (UniProt P83916) (assay: HTS for Inhibitors of HP1-beta Chromodomain Interactions with Methylated Histone Tails). Settings: AlphaScreen HP1-beta / biotin-H3K9me3 peptide binding; series mostly up to 114 µM; activity change, negative = inhibition: at the top concentration.
Chain of UniProt P83916 (P83916 whole entry, looked up): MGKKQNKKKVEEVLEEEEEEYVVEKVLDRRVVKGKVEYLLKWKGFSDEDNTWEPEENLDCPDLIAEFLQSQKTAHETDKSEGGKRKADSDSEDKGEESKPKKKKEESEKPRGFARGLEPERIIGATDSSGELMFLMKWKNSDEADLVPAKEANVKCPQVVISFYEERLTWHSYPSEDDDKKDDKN
How it was run: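 Compound inhibition of the preformed complex between 50 nM HP1-beta and 50 nM biotinylated H3K9me3 peptide was read by AlphaScreen. Buffer was PBS pH 7.4 with 0.01% Tween-20. Incubations ran 30 min at room temperature, with 10 ug/mL donor/acceptor beads.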
For `COc1ccc(/C=C2\SC(=S)N(CC3CCCO3)C2=O)cc1` (stereo unspecified), the Potency was inconclusive: 31.6 µM [inhibitor, partial curve].
In the case of `Oc1ccc(N=Cc2ccc(O)c(O)c2)cc1`, the Potency is reported as inconclusive: 14.1 µM [inhibitor, single point].
With `CCC(=O)Nc1cccc(NC(=S)NC(=O)c2cccc(C)c2)c1` the Potency was inconclusive: 31.6 µM [inhibitor, single point].
For `CCOc1ccc(N(C(C)C(=O)NN=C2CCCCCCC2)S(C)(=O)=O)cc1` (stereo unspecified), the “activity change, negative = inhibition” value was inactive: 28.5%.
For `CN1C(=O)C(=O)/C(=C(/O)c2ccccc2)C1c1ccccc1` (stereo unspecified), the “activity change, negative = inhibition” value was inactive: 21%.
`Cc1cc(C)nc(SCC(=O)c2ccc(F)cc2)n1` was tested, and the “activity change, negative = inhibition” value was inactive: 51.6%.
With `Cc1nn(-c2ccccn2)c2c1C(=O)C(Br)CC2` (stereo unspecified) the Potency was inconclusive: 5.01 µM [inhibitor, full curve].
`COc1ccc(N2CCN(Cc3nc(-c4ccc(Cl)cc4Cl)no3)CC2)cc1` was tested, and the Potency was inconclusive: 39.8 µM [inhibitor, partial curve].
`COc1ccc(OC)c2sc(N3CCN(C(=O)C4CC4)CC3)nc12` was tested, and the Potency was inconclusive: 89.1 µM [inhibitor, single point].
For `CCC(C)C(N)C(=O)N1CCCC1C(=O)NC(C(=O)O)C(C)CC` (stereo unspecified), the “activity change, negative = inhibition” value was inactive: 0.523%.
For `COc1ccc(OC)c(-n2cnc3cc(C(=O)NC4CCCCCC4)ccc32)c1`, the Potency was inconclusive: 89.1 µM [inhibitor, single point].
`CCOc1cccc(CNc2ccc(O)cc2)c1OCc1ccc(Cl)cc1Cl` was tested, and the Potency was inconclusive: 31.6 µM [inhibitor, single point].
In the case of `Cc1cc(NO)nc(-c2ccc(Br)cc2)n1`, the Potency is reported as inconclusive: 89.1 µM [inhibitor, single point].
With `COc1cccc(-c2nnc(SCC(=O)Nc3ccc(OC)c(OC)c3)n2N)c1` the Potency was inconclusive: 31.6 µM [inhibitor, partial curve, poor fit].
In the case of `Cc1cc(/C=N/NC(N)=S)c(O)c(/C=N/NC(N)=S)c1`, the “activity change, negative = inhibition” value is reported as inactive: 30.5%.
For `O=C(O)c1ccc(N/N=C/C=C/c2ccc([N+](=O)[O-])o2)cc1`, the Potency was inconclusive: 50.1 µM [inhibitor, partial curve, poor fit].
`CC1=NN(c2ccc(Cl)c(C(=O)O)c2)C(=O)/C1=C/c1ccc(-c2ccccc2[N+](=O)[O-])o1` was tested, and the Potency was inconclusive: 50.1 µM [inhibitor, partial curve].
With `COCCCN(C(=S)Nc1c(C)cc(C)cc1C)C(C)c1ccccn1` (stereo unspecified) the “activity change, negative = inhibition” value was inactive: 6%.
For `CSc1nc2n(n1)C(C)C1=C(CCCC1=O)N2` (stereo unspecified), the “activity change, negative = inhibition” value was inactive: 27.9%.
In the case of `Cc1ccc2[nH]c(O)c(N=Nc3ccccc3C)c2c1`, the Potency is reported as active: 70.8 µM.
In the case of `CCn1c(CSc2nnc(-c3ccncc3)n2CCOC)nc2cc(C(=O)O)ccc21`, the “activity change, negative = inhibition” value is reported as inactive: 35.7%.
For `CCC(=O)N(Cc1cc2ccccc2[nH]c1=O)c1ccccc1OC`, the “activity change, negative = inhibition” value was inactive: 43.8%.
For `COc1cc(C(=O)N2CCN(c3cccc(C(F)(F)F)c3)CC2)ccc1OCC(=O)N1CCOCC1`, the “activity change, negative = inhibition” value was inactive: 22.3%.
With `CN1CCN(CC(=O)Nc2ccc(S(=O)(=O)N(C)C)cc2)CC1` the Potency was inconclusive: 20 µM [inhibitor, full curve, poor fit].
With `NC(=O)N/N=C/c1cn(-c2ccccc2)nc1-c1ccccc1` the Potency was inconclusive: 89.1 µM [inhibitor, single point].
In the case of `O=C(c1ccc(-c2ccc([N+](=O)[O-])cc2)o1)N1CCCC(C(F)(F)F)C1` (stereo unspecified), the Potency is reported as inconclusive: 50.1 µM [inhibitor, partial curve].
`O=C(COc1ccc2c(c1)OCO2)Nc1nnc(Cc2ccccc2)s1` was tested, and the Potency was inconclusive: 15.8 µM [inhibitor, full curve].
With `O=c1cnnc(N/N=C/C2CC=CCC2)[nH]1` (stereo unspecified) the “activity change, negative = inhibition” value was inactive: 39.8%.
For `CC(C)NCC(O)Cn1c2c(c3ccccc31)CCc1c-2cnn1-c1ccccc1` (stereo unspecified), the Potency was inconclusive: 79.4 µM [inhibitor, single point].
In the case of `O=C1C(=O)C(c2cc(O)c(O)c(O)c2)Oc2cc(O)cc(O)c21` (stereo unspecified), the Potency is reported as inconclusive: 3.16 µM [inhibitor, full curve, poor fit].
`CCCc1cc(C(N)=O)c(NC(=O)c2ccoc2C)s1` was tested, and the Potency was inconclusive: 20 µM [inhibitor, partial curve, poor fit].
`COc1ccc(Nc2nc(NCCCN3CCOCC3)nc(N)c2[N+](=O)[O-])cc1` was tested, and the “activity change, negative = inhibition” value was inactive: 15.4%.
With `CCOc1ccc(N2C(=O)C3Sc4[nH]c(=O)sc4C(/C=C/c4ccccc4)C3C2=O)cc1` (stereo unspecified) the Potency was inconclusive: 1.58 µM [inhibitor, full curve, poor fit].
In the case of `COc1ccc(CN2CCc3ccccc3C2)c(OC)c1OC`, the Potency is reported as inconclusive: 70.8 µM [inhibitor, partial curve, poor fit].
`CC(C)Cn1c(SC(C)C(=O)Nc2ccc(N3CCOCC3)cc2)nc2ccccc21` (stereo unspecified) was tested, and the Potency was inconclusive: 39.8 µM [inhibitor, partial curve].
`Cc1cccc(C2Nc3cccc4cccc(c34)N2)c1` was tested, and the Potency was inconclusive: 35.5 µM [inhibitor, partial curve].
For `O=C(O/N=C\c1ccc(N2CCOCC2)c([N+](=O)[O-])c1)c1ccc(F)cc1`, the Potency was inconclusive: 50.1 µM [inhibitor, partial curve].
For `CC(=O)Nc1ccc(NC(=O)c2cc(S(=O)(=O)N3CCCCC3)ccc2C)cc1`, the Potency was inconclusive: 89.1 µM [inhibitor, single point].
For `CCN1C(=O)/C(=C2/C=CC=CN2C)SC1=S`, the Potency was inconclusive: 50.1 µM [inhibitor, partial curve, poor fit].
`O=C(CN1CCCc2ccccc21)NC(=O)NC1CCCCC1` was tested, and the Potency was inconclusive: 28.2 µM [inhibitor, full curve].
For `CCOc1ccc2nc(NC(=O)c3ccc(OCC4CCCO4)cc3)sc2c1` (stereo unspecified), the “activity change, negative = inhibition” value was inactive: 24.8%.
With `CCCCCC(/C=N/Nc1ccc(S(=O)(=O)N2CCOCC2)cc1[N+](=O)[O-])=C\c1ccccc1` the Potency was inconclusive: 5.01 µM [inhibitor, partial curve, poor fit].
With `O=C(CN1C(=O)CC(c2ccco2)Sc2ccccc21)NC1CCCCC1` (stereo unspecified) the “activity change, negative = inhibition” value was inactive: 19%.
With `CC1CCc2c(sc3[nH]c(=S)n(C)c(=O)c23)C1` (stereo unspecified) the Potency was inconclusive: 8.91 µM [inhibitor, partial curve, poor fit].
For `COc1ccc(-n2ccnc(SCC(=O)NCc3ccccc3Cl)c2=O)cc1`, the “activity change, negative = inhibition” value was inactive: 44%.
`FC(F)(F)c1nc(=S)c2ccccc2[nH]1` was tested, and the Potency was inconclusive: 31.6 µM [inhibitor, full curve].
`Cc1cc2c(cc(C(=O)NCc3cccnc3)n2Cc2ccc(Cl)cc2)o1` was tested, and the “activity change, negative = inhibition” value was inactive: -22.1%.
`CCOC(=O)C1=CNS(=O)(=O)NC1c1ccc(C#N)cc1` (stereo unspecified) was tested, and the “activity change, negative = inhibition” value was inactive: 28.2%.
`Cc1cc(Br)ccc1OCCn1ccnc1` was tested, and the Potency was active: 22.4 µM.
`CSc1cccc(NCc2ccc([N+](=O)[O-])cc2)c1` was tested, and the Potency was inconclusive: 22.4 µM [inhibitor, full curve].
For `Cc1cc(C)cc(-n2c(C)cc(/C=N/NC(=O)CSc3ncccn3)c2C)c1`, the Potency was inconclusive: 20 µM [inhibitor, partial curve, poor fit].
For `O=S1(=O)c2ccccc2N(Cc2ccccc2)c2ccccc21`, the Potency was inconclusive: 79.4 µM [inhibitor, partial curve, poor fit].
For `COC(=O)c1ccc(COc2ccc(/C=N/Nc3nc(C)cc(=O)[nH]3)cc2)cc1`, the “activity change, negative = inhibition” value was inactive: 70.4%.
For `COc1cc(OC)cc(C(=O)N2CCN(C3CCN(Cc4ccccc4)CC3)CC2)c1`, the Potency was inconclusive: 25.1 µM [inhibitor, single point].
In the case of `COc1ccccc1CN1CCN(Cc2ccc3ccccc3c2)CC1`, the Potency is reported as inconclusive: 15.8 µM [inhibitor, full curve, poor fit].
For `Cc1ccc(NC(=O)CSc2nc3ncccc3[nH]2)cc1F`, the “activity change, negative = inhibition” value was inactive: 36.3%.
In the case of `COc1ccccc1NS(=O)(=O)c1ccc(NN=C2CCCCC2)c([N+](=O)[O-])c1`, the Potency is reported as inconclusive: 31.6 µM [inhibitor, partial curve, poor fit].
In the case of `CCOc1cc(/C=N/NC(=O)C(=O)NCCCOC(C)C)cc(Br)c1O`, the “activity change, negative = inhibition” value is reported as inactive: 35.1%.
For `CC(=O)Oc1ccccc1C(=O)C=Cc1cccc([N+](=O)[O-])c1`, the “activity change, negative = inhibition” value was inactive: -17.5%.
For `CCC1=NN(C(=O)c2ccc(Cl)cc2)C(O)(c2ccc(C)cc2)C1` (stereo unspecified), the Potency was inconclusive: 22.4 µM [inhibitor, single point].
With `COc1ccc(-c2onc(C)c2C)cc1S(=O)(=O)N1c2ccccc2CC1C` (stereo unspecified) the “activity change, negative = inhibition” value was inactive: 10.1%.
`COc1ccc(C2Sc3ccccc3NC3=C2C(=O)c2ccccc23)c(OC)c1OC` (stereo unspecified) was tested, and the Potency was inconclusive: 12.6 µM [inhibitor, full curve, poor fit].
In the case of `Oc1ccc(-c2cnns2)c(O)c1`, the Potency is reported as inconclusive: 1.58 µM [inhibitor, full curve, poor fit].
With `Cc1ccc2c(c1)C(C)CC(C)(C)N2C(=O)CN1CCN(C)CC1` (stereo unspecified) the Potency was inconclusive: 28.2 µM [inhibitor, partial curve].
`CC(C)COc1ccc(C(=O)Nc2cccc(-c3nc4ccccc4[nH]3)c2)cc1` was tested, and the “activity change, negative = inhibition” value was inactive: 21.2%.
`COc1ccc(S(=O)(=O)NC(C)C(=O)Nc2ccc3c(c2)OCO3)cc1OC` (stereo unspecified) was tested, and the “activity change, negative = inhibition” value was inactive: 23.6%.
For `Cc1ccc(Nc2c([N+](=O)[O-])ccc3c2=NC2(CCCCC2)N=3)cc1`, the Potency was inconclusive: 2.82 µM [inhibitor, full curve, poor fit].
For `O=C(CN1C(=O)/C(=C2/SC(=S)N(CCS(=O)(=O)O)C2=O)c2ccccc21)Nc1cccc(Br)c1`, the Potency was active: 50.1 µM.
For `COc1ccccc1OCCCCN1CCCCC1`, the “activity change, negative = inhibition” value was inactive: 10.3%.
`CCOCCOC(=O)c1[nH]c2c(c1C)C(=O)CC(c1cc(OC)c(OC)c(OC)c1)C2` (stereo unspecified) was tested, and the Potency was inconclusive: 89.1 µM [inhibitor, partial curve, poor fit].
For `CCN(CC)c1ccc(/C=N/NC(=S)NCc2ccccc2)cc1`, the Potency was inconclusive: 8.91 µM [inhibitor, partial curve].
